In PubChem BioAssay AID1159614 (National Center for Advancing Translational Sciences (NCATS), 2016):
Among all 45,000 compounds or so, about 65 (0.1%) were called active. Calls come from the whole dose curve; as a rule, active = well fitted activation curve with a large enough effect; inconclusive = small, poorly fitted or top-dose-only effect; inactive = no such curve, though single readings can be large or run the other way. The list shows a part of the results.

target: Galactocerebrosidase (Homo sapiens) (UniProt P54803); assay: A Novel Cell-Based Assay to Identify Small Molecules for B -Galactocerebrosidase; conditions: 145M-Twi-hGALC-G270D cells, HMU-beta-Gal fluorescence, 48 h; series mostly up to 57.5 µM; activation: at the top concentration; note: 0% is about no effect; nearly all actives have a fitted effect of over 65% in size
Summary of the method: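 qHTS, 1536-well; 145M-Twi-hGALC-G270D cells (WT line also made) in DMEM/F12 + 10% FBS; compound incubation on live cells; HMU-β-gal 0.1 mM final, pH 5.2, NaTC; carbonate stop; fluorescence increase = enhanced residual activity.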

Sequence of UniProt P54803 (P54803 whole entry, looked up): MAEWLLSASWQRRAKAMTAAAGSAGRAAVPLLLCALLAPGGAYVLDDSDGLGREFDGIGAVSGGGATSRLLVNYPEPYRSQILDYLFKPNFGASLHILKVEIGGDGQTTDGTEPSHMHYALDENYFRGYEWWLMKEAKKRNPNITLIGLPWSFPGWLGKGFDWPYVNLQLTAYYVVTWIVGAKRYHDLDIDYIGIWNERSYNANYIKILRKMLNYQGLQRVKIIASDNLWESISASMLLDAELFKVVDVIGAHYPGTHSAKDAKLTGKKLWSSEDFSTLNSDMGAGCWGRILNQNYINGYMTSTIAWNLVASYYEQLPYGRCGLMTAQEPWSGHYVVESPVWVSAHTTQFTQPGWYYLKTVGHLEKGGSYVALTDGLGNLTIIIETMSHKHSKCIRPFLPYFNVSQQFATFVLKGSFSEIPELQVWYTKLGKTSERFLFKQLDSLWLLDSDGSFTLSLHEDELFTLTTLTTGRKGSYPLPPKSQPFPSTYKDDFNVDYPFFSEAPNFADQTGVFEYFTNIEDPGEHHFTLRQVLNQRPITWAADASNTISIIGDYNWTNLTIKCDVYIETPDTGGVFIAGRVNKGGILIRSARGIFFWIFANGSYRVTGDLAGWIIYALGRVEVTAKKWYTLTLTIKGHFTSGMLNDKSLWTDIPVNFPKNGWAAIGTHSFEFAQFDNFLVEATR

SMILES	activation
CCOC(=O)Cn1c(=O)oc2cc(S(=O)(=O)N3CCC(C(=O)OCC)CC3)ccc21	inactive: -15.6%
COc1ccc(NC(=O)Cn2nnc3sc4c(c3c2=O)CCCC4)cc1	inactive: -14.4%
Cc1ccc(NC(=O)CSc2nnc(-c3ccc(Br)cc3)o2)c(C)c1	inactive: -5.76%
Cc1cc(C)c(NC(=O)CSc2nc3ccncc3[nH]2)c(C)c1	inactive: -10.7%
COc1ccc(CNC(=O)c2ccc3nc(C(C)C)oc3c2)cc1OC	inactive: -6.7%
Cc1ccc(NC(=O)CN2C(=O)COc3ccc(S(=O)(=O)Nc4ccccc4)cc32)c(C)c1	inactive: -14.1%
COC(=O)c1cc2oc3ccccc3c2n1Cc1c(C)cc(C)cc1C	inactive: 6.58%
CCc1ccc(NC(=O)CCc2nnc3n(C)c(=O)c4sccc4n23)cc1	inactive: -5.16%
Cc1cc(C)c2c(=O)cc(C(=O)NCc3ccc(S(N)(=O)=O)cc3)oc2c1	inactive: -15.6%
COCCCNC(=O)CSc1nc(-c2ccc(OC)c(OC)c2)[nH]c1-c1ccc(F)cc1	inactive: -14.5%
Cc1ccc(C2=NC(c3ccccc3)=Nc3ccc(Cl)cc3N2)cc1	inactive: -14%
Cc1nc2cccnc2n1-c1cccc(C(=O)NCCc2ccc(S(N)(=O)=O)cc2)c1	inactive: -24.9%
COc1cc2ccccc2cc1C(=O)Nc1cccc(-c2nc3cc(C)ccc3o2)c1C	inactive: -11.1%
Cc1nn2c(=O)cc(COC(=O)COc3ccc(F)cc3)nc2s1	inactive: -9.86%
Cc1cc(C)cc(NC(=O)Cn2c(=O)n(Cc3ccco3)c(=O)c3oc4ccccc4c32)c1	inactive: -10.3%
Cc1cccc(NC(=O)C2CCCN(S(=O)(=O)c3ccc(Br)s3)C2)c1 (centres undefined)	inactive: -17.1%
O=C(Nc1ccc(Cl)cc1C(F)(F)F)c1cc(S(=O)(=O)N2CCOCC2)ccc1F	inactive: -0.52%
CCOc1ccc(S(=O)(=O)n2nc(C)c(S(=O)(=O)N3CCCCC3)c2C)cc1	inactive: -2.18%
COc1cc(CN2CCc3nc(N4CCN(c5ccccn5)CC4)ncc3C2)cc(OC)c1OC	inactive: -10.8%
CC(=O)c1cc(-c2ccccc2)n(CCC(=O)NC(C)c2ccccc2)c1C (centres undefined)	inactive: -13.8%
COC(=O)c1ccccc1NS(=O)(=O)c1ccc2c(c1)CCCN2C(C)=O	inactive: -8.48%
CCCC(=O)n1nc(-c2cccnc2)nc1NCc1ccc(OC)cc1	inactive: -28.6%
N/C(=N\N=C\c1ccc(Cl)cc1)N/N=C/c1ccc(Cl)cc1	inactive: -14.6%
COc1ccc(C(=O)Nc2cc3c(cc2N2CCCC2)n(C)c(=O)c(=O)n3C)cc1OC	inactive: -17.2%
Cc1nn(CCCC(=O)NCc2ccccc2)c(=O)c2cc3sccc3n12	inactive: -17.9%

SMILES	activation
CC(C)(C)OC(=O)N1CCC(c2c(C(=O)NCc3ccco3)cnn2-c2ccccc2Cl)CC1	inactive: -10.4%
COc1ccc(C(=O)Nc2cc(S(=O)(=O)c3ccc(Cl)cc3)c(O)c(C)c2C)cc1	inactive: -16.1%
Fc1ccc(-n2ncc3c(NCCC4=CCCCC4)ncnc32)cc1	inactive: -10.2%
CCOc1ccc(OCC)c(NC(=O)C(NS(=O)(=O)c2cccs2)c2ccccc2)c1 (centres undefined)	inactive: 0.994%
COc1ccccc1NC(=O)Cn1nc(-c2ccc(C)cc2)c2c(c1=O)CCCC2	inactive: -1.24%
O=C(Nc1ccc(Br)cc1)C(Cc1ccccc1)NS(=O)(=O)c1cccc2nsnc12 (centres undefined)	inactive: -11.9%
CCOc1cc(C(=O)Nc2ccc(-c3nc4ccccc4s3)cc2Cl)cc(OCC)c1OCC	inactive: 2.43%
Cc1cccc(C)c1NC(=O)Cn1c(=O)n(Cc2ccc3c(c2)OCO3)c(=O)c2oc3ccccc3c21	inactive: -8.87%
CCc1ccc(-n2nc3cc(C)c(NC(=O)c4cc(OC)cc(OC)c4)cc3n2)cc1	inactive: -6.33%
CC(C)(C)c1ccc(C(=O)NCC(c2cccs2)S(=O)(=O)c2cccs2)cc1 (centres undefined)	inactive: -9.64%
Cc1ccc(CNC(=O)c2c(C)oc3nc(C)nc(N4CCOCC4)c23)cc1	inactive: 3.27%
COc1ccccc1CCNC(=O)Cc1c(C)c2cc3c(C)coc3cc2oc1=O	inactive: -13.5%
Cc1cc(C)c2c(CC(=O)Nc3ccc(S(=O)(=O)N4CCCCC4)cc3)coc2c1	inactive: -18.4%
O=C(c1cc2ccccc2oc1=O)N1CCN(c2ccc(F)cc2)CC1	inactive: -3.56%
Cc1cccc(CSCc2ccc(C(=O)NCCc3ccccc3)o2)c1	inactive: 0.517%
CC(C)c1ccc2oc3nc(N)c(C(=O)O)cc3c(=O)c2c1	inactive: -21.7%
N#Cc1c(-n2ncnc2-c2ccccc2C(F)(F)F)sc2c1CCCCC2	inactive: -7.62%
Cc1ccc(NCc2cccn2-c2nnc(N3CCC(C(=O)NCCC(C)C)CC3)s2)cc1	inactive: -6.47%
CCOC(=O)c1ccc(Nc2c(-c3cccc(O)c3)nc3nc[nH]n23)cc1	inactive: -13.1%
CCOc1cc(-c2ccc(OC(=O)c3ccc(C)cc3)c(OC)c2)cc(=O)c2c(C)oc(C)c12	inactive: -27.4%
Nc1c(-c2nc(-c3ccccc3)no2)nnn1CC(=O)Nc1cccc(F)c1	inactive: -17.1%
CCN(CC)CCN(C(=O)c1ccco1)c1nc2cc(C)cc(C)c2s1	inactive: -7.84%
CC(=O)c1ccc(NC(=O)CN(C)S(=O)(=O)c2cc3c(cc2Cl)NC(=O)CO3)cc1	inactive: -30.4%
CCCN(CCC)S(=O)(=O)c1ccc(C(=O)Nc2cccc(-c3nc4ccccc4[nH]3)c2)cc1	inactive: -16.2%
